Experimental data published in PubChem BioAssay AID1346428 (National Center for Advancing Translational Sciences (NCATS), 2018).
Values joined by “and” are separate entries in the source; they are usually repeats but may differ in a detail not shown here. Identical values can stand only once. About 1,200 (2.5%) of roughly 48,000 compounds were called active. Inconclusive results (about 2%) are left out.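 The calls were made as follows: active = activation of at least 60% and not above a set upper limit (about 1 call in 100 departs from these limits); inconclusive = activation of 40% to 60%, or above that upper limit; inactive = activation under 40%.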 The list shows a part of the results.

Target: Probable G-protein coupled receptor 32 (Homo sapiens) (UniProt O75388)
Sequence of UniProt O75388 (O75388 whole entry, looked up): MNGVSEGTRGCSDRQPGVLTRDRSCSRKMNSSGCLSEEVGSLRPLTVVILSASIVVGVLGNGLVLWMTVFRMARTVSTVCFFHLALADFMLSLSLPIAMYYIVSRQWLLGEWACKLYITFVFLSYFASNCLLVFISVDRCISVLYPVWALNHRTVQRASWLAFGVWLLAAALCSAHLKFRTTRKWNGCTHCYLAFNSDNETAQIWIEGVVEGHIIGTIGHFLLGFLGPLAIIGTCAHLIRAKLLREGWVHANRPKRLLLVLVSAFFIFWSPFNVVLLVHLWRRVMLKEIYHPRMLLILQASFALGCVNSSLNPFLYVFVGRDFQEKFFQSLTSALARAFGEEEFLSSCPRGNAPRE
Assay: qHTS for Agonists of Human Resolvin D1 Receptor DRV1; also: 0% is about no effect
Details: CHO-K1 GPR32 beta-arrestin PathHunter luminescence, 90 min; at 76.9 µM; active compounds read high; zero percent set by DMSO-only wells
Outline: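 GPR32 activation in stably transfected CHO-K1 cells, detected as beta-arrestin recruitment by enzyme-fragment complementation. Compound exposure: 90 min, 37 °C.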

| SMILES | activation |
| --- | --- |
| Cc1ccc(NC(=O)CCc2c(C)nc3c(-c4ccccc4)c(C)nn3c2C)c(C)c1 | inactive: 11.4% |
| COc1ccc(-n2c(=O)c3ccccc3n(CC(=O)NCCc3ccccc3)c2=O)c(OC)c1 | inactive: -8.45% |
| O=C(CSc1nccn1-c1cccc(Cl)c1)Nc1cccc(C(F)(F)F)c1 | inactive: 6.71% |
| CN(Cc1ccccc1)C(=O)CCS(=O)(=O)c1cc(Br)cc2c1N(C(=O)C1CC1)CC2 | inactive: -5.45% |
| Cc1ccc(NC(=O)CSc2nc(-c3ccc(F)cc3)nc3c2Cc2c(CO)cnc(C)c2O3)cc1C | inactive: 0.397% |
| COC(=O)c1ccccc1NC(=O)CN(c1ccccc1OC)S(C)(=O)=O | inactive: -7.55% |
| CCn1c(=NC(=O)c2ccc(S(=O)(=O)N3CCCCC3)cc2)sc2cccc(OC)c21 | inactive: 19.5% |
| CCc1nn2c(-c3ccccc3OC)ccnc2c1-c1ccc(F)cc1 | inactive: 0.127% |
| CCOC(=O)c1cccc(NC(=O)CC(c2cc(OC)c(OC)c(OC)c2)N2Cc3ccccc3C2=O)c1 (stereo not drawn) | inactive: -7.91% |
| CCOC(=O)C1CCN(c2c(C(=O)c3ccc(OCC)cc3)cnc3ccc(OC)cc23)CC1 | inactive: -44.6% |
| Oc1c(C(c2ccccc2F)N2CCOCC2)sc2nc(-c3ccco3)nn12 (stereo not drawn) | inactive: -12.5% |
| COc1ccc(CCNc2nc(-c3ccc(C)cc3)cc(C(F)F)n2)cc1OC | inactive: -2.56% |
| COC(=O)c1ccc(NC(=O)CCc2c(C)nc3c(c(C)nn3-c3ccc(C)cc3)c2C)cc1 | inactive: -18.2% |
| CC(NC(=O)CSc1n[nH]c(-c2ccccc2Cl)n1)c1nc2ccccc2n1C (stereo not drawn) | inactive: 0.48% |
| Cc1c(Cl)cccc1NC(=O)CC(c1cccs1)N1Cc2ccccc2C1=O (stereo not drawn) | inactive: -3.49% |
| CCN(c1ccccc1)S(=O)(=O)c1ccc2[nH]cc(C(=O)NC3CCCCC3)c(=O)c2c1 | inactive: 29.5% |
| Cc1nc2c(C(=O)NCc3ccccc3Cl)c[nH]n2c(=O)c1Cc1cccc(Cl)c1 | inactive: 22% |
| COc1c(C)cc(S(=O)(=O)Nc2cccc(-c3ccc(N4CCOCC4)nn3)c2)c(C)c1C | inactive: -0.251% |
| CCOc1ccc(NC(=O)CN2CCN(Cc3ccccc3)S2(=O)=O)cc1 | inactive: -1.55% |
| CCCCN(C)CCCNC(=O)CN1C(=O)COc2ccc(S(=O)(=O)N3CCC(C)CC3)cc21 | inactive: -0.101% |
| CCOC(=O)N1CCc2c(sc(NCc3sccc3C)c2C(=O)Nc2cc(OC)ccc2OC)C1 | inactive: -8.25% |

| SMILES | activation |
| --- | --- |
| COc1cccc(NC(=O)CSc2cc(=O)n(C)c3ccc(Cl)cc23)c1 | active: 66.2% |
| Cc1cc(=O)[nH]c2nnc(SCc3ccc(Cl)c(Cl)c3)n12 | inactive: 1.28% |
| CCOc1ccccc1-n1c(C)nc2cc(C(=O)O)ccc21 | inactive: 6.65% |
| CCCCNC(=O)C1CCN(C(=O)N2CC(C)Oc3ccc(Cl)cc32)CC1 (stereo not drawn) | inactive: 7.75% |
| CCOc1ccccc1NC(=O)CN1C(=O)COc2ccc(S(=O)(=O)N3CCCCCC3)cc21 | inactive: -14.7% |
| COc1ccc(NC(=O)c2c(C(=O)Nc3ccccc3)sc3nc(C)cc(=O)n23)cc1 | inactive: -24% |
| CCOc1ccccc1NC(=O)Cc1coc2c(C)c(C)ccc12 | inactive: -6.57% |
| Cc1cccc(C(=O)N2CCc3cc(CNC(=O)c4ccnn4C)ccc32)c1 | inactive: -6.96% |
| Cc1ccc(CCNC(=O)C(CC(C)C)NS(=O)(=O)c2ccc3c(c2)oc(=O)n3C)cc1 (stereo not drawn) | inactive: -2.46% |
| Cn1cnc(S(=O)(=O)N2CCCC(C(=O)NCc3ccccc3Cl)C2)c1 (stereo not drawn) | inactive: -9.35% |
| N#C/C(=C\c1ccc(F)cc1)C(=O)NCC1CCCO1 (stereo not drawn) | inactive: 16.5% |
| O=c1cc(-c2ccccc2)nc(SCc2nc(-c3ccc(C(F)(F)F)cc3)no2)[nH]1 | inactive: -2.19% |
| COc1ccc(CNC(=O)CCc2cn(Cc3cc(C)ccc3C)c3ccccc23)cc1OC | inactive: -35.8% |
| CC(C)(C)c1ccc(-c2nc3cc(NC(=O)c4cc5ccccc5o4)ccc3o2)cc1 | inactive: -0.403% |
| CCCOc1ccc(-c2nc3ccccc3c(=O)o2)cc1 | inactive: 41.9% |
| CCc1cccc(N(C)C(N)=Nc2cccc3ccccc23)c1 | inactive: 26.6% and inactive: 12.9% |
| COc1ccc(NC(=O)NC2COc3ccccc3C2)c(OC)c1 (stereo not drawn) | inactive: -19.7% |
| Cc1c(C(=O)Nc2nc(-c3ccc(F)cc3)ns2)oc2ccc(Br)cc12 | inactive: -1.59% |
| CC(=O)NS(=O)(=O)c1ccc(N)cc1 | inactive: -14.6% |
| CC(C)c1ccc(NC(=O)C2CCN(S(=O)(=O)c3cccc4nsnc34)CC2)cc1 | inactive: 30.9% |
| O=C(Cn1ccn(-c2cccc(Cl)c2)c(=O)c1=O)NCCc1ccccc1 | inactive: -8.84% |

| SMILES | activation |
| --- | --- |
| COc1ccc2c(c1)cc(CNc1ccc(OC)c(OC)c1)c(=O)n2CC(=O)Nc1ccc(F)cc1 | inactive: -55.1% |
| COc1ccccc1CNC(=O)CCCCn1c(=O)c2ccccc2n(Cc2c(C)cc(C)cc2C)c1=O | inactive: 0.879% |
| COc1ccc(CNC(=O)Cn2c(=O)oc3cc(S(=O)(=O)N4CCCCCC4)ccc32)cc1 | active: 60.6% |
| COc1ccc(N2CCN(C(=O)CCc3c(C)nc4c(-c5ccccc5)c(C)nn4c3C)CC2)cc1 | inactive: -1.12% |
| O=S(=O)(NCC(c1ccco1)S(=O)(=O)c1ccccc1)c1ccccc1 (stereo not drawn) | inactive: -11.5% |
| Cc1c(C(=O)Nc2ccc(F)c(F)c2)oc2ccc(S(=O)(=O)N3CCCCC3)cc12 | inactive: 8.96% |
| COc1ccccc1CNC(=O)CCc1c(C)c2ccc(OC)c(C)c2oc1=O | inactive: -3.28% |
| Cc1cn([C@H]2C=C[C@@H](CO)O2)c(=O)[nH]c1=O | inactive: -15.4% and inactive: 0.461% |
| Cc1cc(N2CCN(C)CC2)nc2ccc(NC(=O)Nc3ccccc3Br)cc12 | active: 103% |
| CCOc1ccc(S(=O)(=O)N(CC(=O)Nc2cccnc2)c2ccccc2)cc1 | inactive: 13.2% |
| Cc1cc(C)n2nc(SCC(=O)Nc3cc(Cl)ccc3C)nc2n1 | inactive: -1.4% |
| COc1ccc(CCNC(=O)c2ccc3c(c2)N(Cc2ccc(C)cc2)CCS3)cc1OC | inactive: -18.6% |
| CC1=C(C(N)=O)C(c2ccc(C(C)C)cc2)n2nc(SCc3ccccc3)nc2N1 (stereo not drawn) | inactive: -3.09% |
| CCOc1ccccc1C1C(C(=O)Nc2ccccc2)=C(C)Nc2c(C(=O)Nc3ccc(F)cc3)cnn21 (stereo not drawn) | inactive: -19.3% |
| CCn1cc(C(=O)N2CCN(c3ccc(OC)cc3)CC2)c2cc(OC)c(OC)cc2c1=O | inactive: -7.75% |
| Cc1ccccc1Cn1c2ccccc2c2cnn(CC(=O)N3CCC(C)CC3)c(=O)c21 | inactive: -5.9% |
| Cc1ccc(NC(=O)Cn2cc(C(=O)c3ccco3)c3ccccc32)cc1 | inactive: -14.2% |
| CCOc1ccc(-c2cccc(NS(=O)(=O)c3ccccc3C(F)(F)F)c2)nn1 | inactive: 5.17% |
| CCc1ccc(NC(=O)N2CCC(N3CCN(Cc4ccc(C)cc4)C(=O)C3=O)CC2)cc1 | inactive: -14.9% |
| COc1ccc(-c2cc3nccc(-c4cc(Cl)c(C)cc4O)n3n2)cc1 | inactive: 15.1% |
| CCn1c(C(=O)N2CCCC(C(=O)N3CCN(c4ccccc4)CC3)C2)cc2sccc21 (stereo not drawn) | inactive: 34.9% |

| SMILES | activation |
| --- | --- |
| Cc1nn(CC(=O)NCCc2ccccc2)c(=O)c2c1sc1ccccc12 | inactive: -9.37% |
| CCOc1ccccc1NC(=O)CSC1=Nc2ccccc2C2=NC(CC(=O)NCc3ccc4c(c3)OCO4)C(=O)N12 (stereo not drawn) | inactive: -16.9% |
| O=c1cc(-c2ccccc2)n2c(SCc3ccc(Br)cc3)nnc2[nH]1 | inactive: -0.0537% |
| COc1ccc(-n2ccnc(NCCc3ccc(Cl)cc3)c2=O)cc1OC | active: 105% |
| COc1ccccc1CN1C(=O)C(=O)c2cccc(C)c21 | inactive: -23.6% |
| Cc1ccc(S(=O)(=O)NCC(c2ccc(N(C)C)cc2)N2CCc3ccccc32)cc1 (stereo not drawn) | inactive: -35.8% |
| CCCCSCCCNC(=O)c1c[nH]c2ccc(S(=O)(=O)Nc3cccc(OC)c3)cc2c1=O | inactive: -9.28% |
| Cc1cc2nc(N(Cc3cccnc3)C(=O)c3ccc(Cl)s3)sc2cc1C | inactive: -6.53% |
| CCC(C)NC(=O)Cn1c(=O)n(-c2ccc(C)c(C)c2)c(=O)c2c(C)c(C(=O)N(CC)CC)sc21 (stereo not drawn) | inactive: -0.931% |
| CCN(Cc1ccccc1)Cc1c(O)ccc2oc(C)c(C(=O)Nc3ccccc3C)c12 | inactive: -13.6% |
| O=C(Cc1ccccc1)Nc1nnc2n1CCS2 | inactive: -3.56% |
| CC(=O)N1c2ccc(S(=O)(=O)N(C)CC(=O)N(Cc3ccccc3)C(C)C)cc2CC1C (stereo not drawn) | inactive: 0.0281% |
| CC(C)(C)c1ccc(C(=O)N2CCN(CCc3ccccn3)CC2)cc1 | inactive: 6.12% |
| CCOc1ccc(C(=O)c2cn(CC(=O)Nc3ccc(F)c(F)c3)c3cc4c(cc3c2=O)OCCO4)cc1 | inactive: 18.6% |
| COc1cccc(NC(=O)CCc2nc(-c3cccs3)no2)c1 | inactive: 15.5% |
| CSc1ncc(Cl)c(C(=O)Nc2c(C(=O)c3ccc(C)c(F)c3)oc3ccccc23)n1 | inactive: 16.8% |
| CCOc1ccc(C2C(=O)N(C3CCCCC3)CC(=O)N2CCC2=CCCCC2)cc1OC (stereo not drawn) | inactive: -35.7% |
| Cc1cccc(OC(=O)c2cc(-c3ccc4c(c3)OCCO4)on2)c1C | inactive: 7.98% |
| COc1cccc(CNC(=O)C(Cc2ccccc2)NS(=O)(=O)c2ccc3c(c2)oc(=O)n3C)c1 (stereo not drawn) | inactive: 16.3% |
| Cc1cc2[nH]c(=O)c(=O)[nH]c2cc1S(=O)(=O)Nc1ccc(OC(F)(F)F)cc1 | inactive: 4.38% |
